Assay results taken from the supplement of paper PMC8728848.
The other results are listed elsewhere or left out.

Columns and labels:
Assay in all cases: glycan array binding signal (z-score within array); higher = stronger binding
Conditions in all cases: glycan notation: IUPAC condensed, linker removed
[1] = target: GlcNAc(b1-4)GlcNAc(b1-4)GlcNAc(b1-4)GlcNAc(b1-4)GlcNAc(b1-4)GlcNAc
Outline: (§1)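 Glycan array data were curated from 3228 arrays in the Consortium for Functional Glycomics database and kept only where the protein sequence was available. Glycan names were converted to IUPAC-condensed notation, and columns mapping to the same glycan were averaged. The binding signal is a within-array Z-score, averaged across arrays of the same protein sequence at different concentrations or buffers and across linkers. Negative Z-scores can be read as non-binding.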

[2] = target: GlcNAc(b1-4)[GlcNAc(b1-6)]GalNAc
Outline: as §1

[3] = target: GlcNAc(b1-6)Gal(b1-4)GlcNAc
Outline: as §1

[4] = target: GlcNAc(b1-6)GalNAc
Outline: as §1

[5] = target: GlcNAc6S(b1-3)Gal(b1-4)GlcNAc
Outline: as §1

[6] = target: Kdn(a2-3)Gal(b1-3)GalNAc
Outline: as §1

[7] = target: Kdn(a2-3)Gal(b1-3)GlcNAc
Outline: as §1

[8] = target: Kdn(a2-3)Gal(b1-4)Glc
Outline: as §1

[9] = target: Kdn(a2-3)Gal(b1-4)GlcNAc
Outline: as §1

[10] = target: Kdn(a2-3)Gal(b1-4)[Fuc(a1-3)]GlcNAc
Outline: as §1

[11] = target: Kdn(a2-6)Gal(b1-4)GlcNAc
Outline: as §1

[12] = target: Man(a1-2)Man(a1-2)Man(a1-3)Man
Outline: as §1

[13] = target: Man(a1-2)Man(a1-2)Man(a1-6)[Man(a1-3)]Man
Outline: as §1

[14] = target: Man(a1-2)Man(a1-3)Man
Outline: as §1

[15] = target: Man(a1-2)Man(a1-3)[Man(a1-2)Man(a1-6)]Man
Outline: as §1

[16] = target: Man(a1-2)Man(a1-3)[Man(a1-2)Man(a1-6)]Man(a1-6)[Man(a1-2)Man(a1-2)Man(a1-3)]Man
Outline: as §1

[17] = target: Man(a1-2)Man(a1-3)[Man(a1-2)Man(a1-6)]Man(a1-6)[Man(a1-2)Man(a1-2)Man(a1-3)]Man(b1-4)GlcNAc(b1-4)GlcNAc
Outline: as §1

[18] = target: Man(a1-2)Man(a1-3)[Man(a1-6)]Man(a1-6)[Man(a1-2)Man(a1-3)]Man(b1-4)GlcNAc(b1-4)GlcNAc
Outline: as §1

[19] = target: Man(a1-2)Man(a1-6)[Man(a1-3)]Man(a1-6)[Man(a1-2)Man(a1-2)Man(a1-3)]Man
Outline: as §1

[20] = target: Man(a1-2)Man(a1-6)[Man(a1-3)]Man(a1-6)[Man(a1-2)Man(a1-2)Man(a1-3)]Man(b1-4)GlcNAc(b1-4)GlcNAc
Outline: as §1

[21] = target: Man(a1-3)[Man(a1-6)]Man
Outline: as §1

[22] = target: Man(a1-3)[Man(a1-6)]Man(a1-6)[Man(a1-2)Man(a1-3)]Man(b1-4)GlcNAc(b1-4)GlcNAc
Outline: as §1

[23] = target: Man(a1-3)[Man(a1-6)]Man(a1-6)[Man(a1-3)]Man
Outline: as §1

[24] = target: Man(a1-3)[Man(a1-6)]Man(a1-6)[Man(a1-3)]Man(b1-4)GlcNAc(b1-4)GlcNAc
Outline: as §1

[25] = target: Man(a1-3)[Man(a1-6)]Man(b1-4)GlcNAc(b1-4)GlcNAc
Outline: as §1

[26] = target: Man(a1-3)[Man(a1-6)]Man(b1-4)GlcNAc(b1-4)[Fuc(a1-6)]GlcNAc
Outline: as §1

[27] = target: Man(a1-6)Man
Outline: as §1

[28] = target: Man(b1-4)GlcNAc
Outline: as §1

[29] = target: MurNAc(b1-4)GlcNAc
Outline: as §1

[30] = target: Neu5Ac(a2-3)Gal
Outline: as §1

[31] = target: Neu5Ac(a2-3)Gal(b1-3)GalNAc
Outline: as §1

[32] = target: Neu5Ac(a2-3)Gal(b1-3)GalNAc(b1-3)Gal(a1-4)Gal(b1-4)Glc
Outline: as §1

[33] = target: Neu5Ac(a2-3)Gal(b1-3)GalNAc(b1-4)[Neu5Ac(a2-3)]Gal(b1-4)Glc
Outline: as §1

[34] = target: Neu5Ac(a2-3)Gal(b1-3)GalNAc(b1-4)[Neu5Ac(a2-8)Neu5Ac(a2-3)]Gal(b1-4)Glc
Outline: as §1

[35] = target: Neu5Ac(a2-3)Gal(b1-3)GalNAc6S
Outline: as §1

[36] = target: Neu5Ac(a2-3)Gal(b1-3)GlcNAc
Outline: as §1

[37] = target: Neu5Ac(a2-3)Gal(b1-3)GlcNAc(b1-2)Man
Outline: as §1

B1: PX9961V-pdi-562-26-562 (Parabacteroides distasonis) (protein)
chain: EIFSEITTDNYYQNSNNIYAALVNNYAKAFSTGWSDARYFLQEVTADQLMIPTRGKHGYNGGEYVRLHEHKWTVEENFVYNGWAAPFQGIALCNNTLSDFENLDFSTFKLTEETKNEYIAELRALRVWNYMFLIDFFRHVPIVTDIEEVKAQSTPLEVFNFMESELLAILPDLPKNRGVSRFDQAGVASILVRLYLNAEKWIGISKYDECEQMAQAILDGKYGEYSIDPDYRGPFRSGINGYRSKENIMEFAIKKNYFEASWLYNMWMHYQDRYSLDNDWQGWNGGNLAPSRDLYGNLYQDKLGMPFEKFPDGDIRKKAFRVISNDGDYEGFFLMGTQYKFDYEKGYGFTDEVITGTEEYNGKPLVYVDQVGRFSEGETGLAKGSHVIYGEENTGYRLIKFPWLPQSKDLFQMNSIPEIRLAEIYYSLAECKYRSGDKIGAARLLDVVRKRYYKAEDWSKFSYESNISKLTDDEFVDELGREFIGERHRRIDLIRWNRFSEGAWWDKTPDATNQDVFPIPYRALNANPLLKQTTAGF
- glycan array binding signal (z-score) [1]: -0.685
- glycan array binding signal (z-score) [2]: -0.379
- glycan array binding signal (z-score) [3]: -0.14
- glycan array binding signal (z-score) [4]: 0.201
- glycan array binding signal (z-score) [5]: 0.315
- glycan array binding signal (z-score) [6]: 0.345
- glycan array binding signal (z-score) [7]: -0.726
- glycan array binding signal (z-score) [8]: 1.04
- glycan array binding signal (z-score) [9]: -0.461
- glycan array binding signal (z-score) [10]: 2.11
- glycan array binding signal (z-score) [11]: 0.151
- glycan array binding signal (z-score) [12]: -0.624
- glycan array binding signal (z-score) [13]: -0.665
- glycan array binding signal (z-score) [14]: -0.467
- glycan array binding signal (z-score) [15]: -0.66
- glycan array binding signal (z-score) [16]: -0.5
- glycan array binding signal (z-score) [17]: 0.278
- glycan array binding signal (z-score) [18]: 0.132
- glycan array binding signal (z-score) [19]: -0.464
- glycan array binding signal (z-score) [20]: -0.121
- glycan array binding signal (z-score) [21]: -0.443
- glycan array binding signal (z-score) [22]: 0.928
- glycan array binding signal (z-score) [23]: 0.428
- glycan array binding signal (z-score) [24]: -0.022
- glycan array binding signal (z-score) [25]: -0.564
- glycan array binding signal (z-score) [26]: 0.015
- glycan array binding signal (z-score) [27]: 0.193
- glycan array binding signal (z-score) [28]: -0.517
- glycan array binding signal (z-score) [29]: -0.496
- glycan array binding signal (z-score) [30]: -0.711
- glycan array binding signal (z-score) [31]: -0.429
- glycan array binding signal (z-score) [32]: -0.516
- glycan array binding signal (z-score) [33]: -0.122
- glycan array binding signal (z-score) [34]: -0.57
- glycan array binding signal (z-score) [35]: -0.819
- glycan array binding signal (z-score) [36]: -0.498
- glycan array binding signal (z-score) [37]: 0.197
